We go through 124 compounds from article PMC9574860, “Chemical Toolkit for PARK7: Potent, Selective, and High-Throughput” (Journal of Medicinal Chemistry, 2022).

In all, about 7,900 compounds went through this assay and about 400 (5.1%) showed an effect of 50% or more. The list shows a part of the results.

The assay deals with Parkinson's disease protein 7 (PARK7/DJ1) (human, UniProt Q99497). Nature of the assay: primary screen, percent inhibition; read as competition with a fluorescent probe by fluorescence polarization; higher = more effect of the substance. Particulars: 100 µM. In outline: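 Fluorescence-polarization probe displacement (JYQ-107, 20 nM final, 2 h) after 2 h preincubation of PARK7 (0.2 μM final) with each fragment at 100 μM final. Read-out ex/em 480/520 nm; remaining activity derived from FP signal loss relative to reference controls.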
Sequence of Parkinson's disease protein 7 (PARK7/DJ1) (Q99497 whole entry, looked up, the tested form may be a part): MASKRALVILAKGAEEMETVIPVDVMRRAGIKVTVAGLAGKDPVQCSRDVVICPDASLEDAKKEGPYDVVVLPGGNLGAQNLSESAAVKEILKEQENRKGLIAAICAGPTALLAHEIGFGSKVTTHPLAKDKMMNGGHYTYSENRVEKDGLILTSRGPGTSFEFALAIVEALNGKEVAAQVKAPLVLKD
As for `C=CC(=O)N1CCN(c2ncnc3c2cnn3C)CC1`, the Inhibition % was determined as 1.13%.
To `N#Cc1[nH]ccc2nccc1-2` belongs 18.7%; to `C=CC(=O)NCC1CCCOC1` (stereo not shown), -1.16%.
To `CC(=O)NCCc1ccc(C(=O)CCl)cc1` belongs 70.8%.
The same measure for `Cc1ccccc1-n1nnnc1SC1CCOC1=O` (stereo not shown): 5.57%; for `CCOc1c(Cl)cc(C=C(C#N)C(N)=O)cc1OC`: 5.8%.
As to `O=C(NCC1CCC(O)C1)c1cc(B(O)O)ccc1F` (stereo not shown), the Inhibition % is reported as 1.49%.
The same measure for `Cc1cccc(C)c1NC(=O)Cn1cnc(C#N)n1`: 6.38%; for `C=CC(=O)NCc1cccc(-n2cncn2)c1`: 10.3%.
For the compound `C=CC(=O)NC1(c2noc(C(F)F)n2)CCC1`, the Inhibition % is reported as -3.62%.
The same measure for `Cc1nc(C#N)c(N2CCN(c3cccc(Cl)c3)CC2)o1`: 7.87%.
To `Cc1cc(SC2CC(C)OC2=O)nc(C)n1` (stereo not shown) belongs 7.91%; to `CC1CCCN(C(=O)C=CC2CCOCC2)C1CN` (stereo not shown), 3.25%; to `C=CC(=O)N1CCCC1c1ccnn1C` (stereo not shown), 6.12%.
With `C=CC(=O)N1CCSC2(CCC2)CC1`, the Inhibition % worked out at 10.9%.
For the compound `Cc1ccc(NC2C=CS(=O)(=O)C2)cc1C` (stereo not shown), the Inhibition % is recorded as 17.4%.
`C=CC(=O)NC(C)c1cnn(C)c1` (stereo not shown): the Inhibition % was 5.67%.
Turning to `O=C(CCCl)N1CCCCC1`, the Inhibition % turned out to be 4.37%.
To `O=C(O)c1ccc(-c2nc(=O)o[nH]2)cc1` belongs 2.46%; to `O=C(CN1CCSC1=O)N1CCCC1`, 6.93%.
To `O=C1NC(C2CC2)C12CCOCC2` (stereo not shown) belongs 5.28%.
To `CCc1ccccc1S(=O)(=O)N[C@@H]1COC(=O)C1` belongs 9.65%.
As for `Cc1ccc(C=CS(=O)(=O)NC(C)CC#N)cc1` (stereo not shown), the Inhibition % came to 1.08%.
To `CC1CC(Sc2nnc(-c3ccccc3)o2)C(=O)O1` (stereo not shown) belongs 0.804%; to `N#Cc1cnccc1S`, 92.5%; to `COc1cc(Cl)c(C)cc1NC(=O)CCl`, 13.1%.
The same measure for `CC(NC(=O)CCl)c1ccc2c(c1)CCCC2` (stereo not shown): 5.3%.
To `C=CC(=O)Nc1ccc2c(c1)CCC(C)(C)O2` belongs 6.26%; to `CC(C)(C)c1ccc(S(=O)(=O)n2ccnc2)cc1`, 17.4%; to `CCOc1cc(S(=O)(=O)n2nc(C)cc2C)c(C)cc1C`, 10.4%.
For the compound `N#Cc1nccnc1N1CCc2c(F)ccc(F)c2C1`, the Inhibition % came to 41%.
The same measure for `O=C(CN1C(=O)CCC1=O)c1ccccc1F`: 9.1%; for `CCc1cc(S(=O)(=O)n2nc(C)cc2C)ccc1OC`: 5.05%; for `O=C(NCCCCl)C1CCCC1`: -1.17%.
The same measure for `CN(C(=O)CCl)C(c1ccccc1)c1ccccc1`: 6.29%.
The same measure for `CC(=O)N1CC2(C[C@@H]3O[C@@H]3C2)C1C(C)C` (stereo partly shown): 3.59%; for `Cc1ccc(NC(=O)N2CCC(C3OCCO3)CC2)cc1`: 4.42%; for `COC(OC)c1ccncn1`: 7.63%.
Regarding `CC(C)c1cc(=O)n(CCS(=O)(=O)F)cn1`, the Inhibition % is given as 7.39%.
To `COc1cnc(C#N)cn1` belongs 2.82%; to `CC1(C)NC(=O)N(CCCCl)C1=O`, 7.23%.
On to `NC(=O)c1ccc(NC(=O)CCl)cc1`, for which the Inhibition % stood at 35.3%.
To `O=C(O)CC1CC(=O)N1` (stereo not shown) belongs 65.7%; to `O=C(CCl)Nc1ccon1`, 14.8%; to `Cc1nc(NC(=O)Oc2ccccc2)no1`, 25.1%.
Regarding `O=C(O)[C@H]1CCCN1C(=O)C=Cc1ccccc1F`, the Inhibition % is recorded as 8.2%.
`C=CC(=O)NC1(c2nc(C)cs2)CCC1`: the Inhibition % amounted to 3.02%.
To `N#CC(=Cc1ccncc1)C(=O)Nc1nccs1` belongs 8.47%; to `Cc1ccc2cccnc2c1B1OC(C)(C)C(C)(C)O1`, 0.734%; to `CS(=O)(=O)C(C#N)=Cc1ccccc1F`, 7.8%.
The same measure for `O=C(CCCl)N1CCc2ccccc21`: 3.9%.
The same measure for `CCc1ccc(OC)c(S(=O)(=O)n2nc(C)cc2C)c1`: 9.34%.
With `Sc1ncnc2sccc12`, the Inhibition % came out at 10.7%.
To `O=C(NC1CN(c2ccccc2)C1=O)c1ncccc1O` (stereo not shown) belongs 8.82%.
To `C=CC(=O)NCc1ccc(C(N)=O)nc1` belongs 1.59%.
To `C=CC(=O)N[C@H]1CCCOC1` belongs 3.32%.
As for `O=C(CCl)Nc1cccc(NC(=O)c2ccccc2)c1`, the Inhibition % was determined as 7.84%.
To `Cc1c(C#N)c(NC(=O)CCl)n(Cc2ccc(F)cc2)c1C` belongs 5.15%; to `O=C(O)c1cccc(CN2C(=O)CSC2=O)c1`, 12.1%; to `O=C(O)CN1Cc2ccccc2OC1=O`, 11.3%.
The same measure for `COc1ccc(CCNC(=O)CCl)cc1`: 30.3%; for `C=CC(=O)N1CCc2sccc2C1CC` (stereo not shown): 7.98%; for `Cc1ccc(CNC(=O)CCl)s1`: 3.17%.
The same measure for `Cc1ccc(O)c(C(=O)N2CCCC(C3OCCO3)C2)c1` (stereo not shown): 5.91%; for `C=CC(=O)N1CCN(c2cccc(OCC)n2)CC1`: 22.3%.
Take `C=CC(=O)N1CCCC1c1nc(N(C)C)no1` (stereo not shown): the Inhibition % came to 5.51%.
To `CN(C)CC=CC(=O)N(C1CCC1)C1CCC1` belongs 7.12%.
To `CSc1ccc(NC(=O)CCl)cc1` belongs 86%; to `C=CC(=O)NCc1ccc(-c2ccccc2F)o1`, 2.54%; to `Cc1ccc(C=C(C#N)C(=O)NC2CC2)s1`, 10.5%.
The same measure for `C=CC(=O)NCc1cc(F)cc2c1OCOC2`: 1.37%; for `CN(CC(N)=O)c1ccc(C(F)(F)F)c(C#N)n1`: 15.4%.
As to `CS(=O)(=O)N1CCCc2cc(C(=O)CCl)ccc21`, the Inhibition % is 76.4%.
`O=C(CCl)Nc1nc2ccc([N+](=O)[O-])cc2s1`: the Inhibition % is given as 6.68%.
As for `CCNC(=O)C(C#N)=Cc1ccc(O)cc1`, the Inhibition % came out at 7.71%.
The same measure for `N#Cc1ncccc1N1CCC=C(F)C1`: 20.1%; for `C=CC(=O)Nc1ccccc1C(F)(F)F`: -0.252%; for `C=C(C)CNC(=O)CCn1c(S)nc2ccccc2c1=O`: 10.3%.
The same measure for `O=C1OC[C@@H]2CN(Cc3ccccc3)C[C@H]12` (racemic): 6.21%.
Regarding `N#Cc1nn(CCOC2CCCCO2)c2ccccc12` (stereo not shown), the Inhibition % stood at 3.95%.
To `C=CC(=O)N1CCC(NC(=O)c2ccncc2)CC1` belongs 7.61%.
With `Fc1ccc(C2=NOC(CCl)C2)cc1` (stereo not shown), the Inhibition % is -2.86%.
As for `CC(C)c1nnc(SC2CCOC2=O)[nH]1` (stereo not shown), the Inhibition % is listed as 15.3%.
As to `CC(C)(C)OC(=O)N1CCC(=CB2OC(C)(C)C(C)(C)O2)CC1`, the Inhibition % is on record as 5.14%.
`COC(=O)c1c(NC(=O)CCl)sc2c1CCC(C)C2` (stereo not shown): the Inhibition % is recorded as 9.23%.
The same measure for `N#Cc1nccn1COC(=O)OC1CCCCC1`: 8.52%; for `N#Cc1ccc(NCC2CCN(CC(F)(F)F)C2)cn1` (stereo not shown): 5.73%.
The same measure for `Cc1cc(C(=O)Cn2cnc(C#N)n2)c(C)n1C`: 18.2%; for `O=C(Nc1ccccc1)NN(C(=O)CCl)c1ccccc1`: 93.5%; for `COc1ccc(CN2C(=O)C(F)(F)C2c2ccco2)cc1` (stereo not shown): 10.7%.
The same measure for `C=CC(=O)Nc1cc(C2CCCOC2)nn1C` (stereo not shown): 10.8%.
As for `N#CC(=Cc1cnn(-c2ccccc2)c1)C(=O)O`, the Inhibition % was 10.6%.
To `C=CC(=O)NC1C2CC3CC1CC(OC)(C3)C2` (stereo not shown) belongs 6.12%.
`CCOc1cc(C)c(S(=O)(=O)n2ccnc2)cc1C`: the Inhibition % is 6.38%.
The same measure for `C=CC(=O)Nc1cnn(C2CCCC2)c1C`: 8.41%.
To `CC(C)(CNC(=O)CCl)N1CCOCC1.Cl` belongs 13.3%; to `CCCn1c(C)cc(C(=O)Cn2cnc(C#N)n2)c1C`, 6.57%; to `CN1C(=O)Cc2cc(C(=O)CCl)ccc21`, 83.4%.
As for `C=CC(=O)N1CCCC1c1ccc(C)cc1` (stereo not shown), the Inhibition % is reported as 10.5%.
To `C=CC(=O)Nc1cc(F)cc(F)c1` belongs 2.67%; to `CCC(C#N)NS(=O)(=O)c1ccc(S(=O)(=O)F)cc1` (stereo not shown), 31.6%.
Turning to `Cc1cc(C(=O)Cn2cnc(C#N)n2)c(C)[nH]1`, the Inhibition % is 7.96%.
For the compound `O=S(=O)(C=Cc1ccccc1)Nc1c(F)cccc1F`, the Inhibition % is 11.7%.
The same measure for `Cc1occc(=O)c1OS(=O)(=O)c1ccc(Cl)cc1`: -4.32%; for `CCn1c2ccccc2c2cc(NC(=O)CCl)ccc21`: 3.25%.
To `OB(O)C1CCN(Cc2cc3c(cn2)OCCO3)C1` (stereo not shown) belongs 21.4%; to `N#CC(=Cc1ccccc1)C(=O)NC1CC1`, 4.34%.
Take `CC(=O)Nc1ccc(C(=O)CCl)cc1`: the Inhibition % turned out to be 82.5%.
As for `C=CC(=O)N1Cc2cc(F)c(F)cc2C1`, the Inhibition % worked out at 2.84%.
The same measure for `CNC(=O)Oc1cccc(N)c1`: 20.5%.
The same measure for `Cc1nn(-c2ccccc2)c(O)c1C(=O)CCl`: 64.4%.
To `Cn1nccc1[C@@H]1OCC[C@H]1CN1CC=C(B(O)O)CC1` belongs 44.8%; to `Fc1cccc(CN2CCCC(C3OCCO3)C2)c1` (stereo not shown), 8.13%.
Turning to `C=CC(=O)Nc1c(C)noc1C(C)C`, the Inhibition % was 5.79%.
As to `Cc1c(B2OC(C)(C)C(C)(C)O2)ccc2c1CCO2`, the Inhibition % is -1.11%.
The same measure for `COC1CCN(c2nc(C#N)ccc2C)CC1`: 71.3%; for `N#Cc1ncccc1N1CCC(N2CCNC2=O)CC1`: 9.41%.
To `N#Cc1ncn(CC(=O)Nc2ccc(Cl)c(Cl)c2)n1` belongs -4.41%; to `Cc1ccc(SCCNC(=O)CCl)cc1`, 24%; to `C=CC(=O)Nc1c(C)nn(C(C)C)c1C`, 0.88%.
The same measure for `COCCNC(=O)C(C#N)=Cc1c(Cl)cccc1Cl`: 2.17%; for `CC1(C)OB(C=Cc2ccccc2Cl)OC1(C)C`: 12.9%.
Take `COc1ccc(C)cc1S(=O)(=O)n1nc(C)cc1C`: the Inhibition % is listed as -9.96%.
To `C=CC(=O)NC1CCC2CCC1OC2` (stereo not shown) belongs 9.75%.
